Reference: PMC4336329 (PLoS ONE, 2015)
Hit rate of the full screen: of about 310,000 compounds, about 14,000 (4.5%) showed an effect of 50% or more. Effects have a minus sign here. This is one part of the list.

The compounds below were run against human ether-à-go-go-related gene (hERG) potassium channel (human, UniProt Q12809) (assay: primary screen, population patch clamp on CHO cells stably expressing hERG).
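Also: peak tail current of the secondary pulse compared with the same well before compound.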

Sequence of human ether-à-go-go-related gene (hERG) potassium channel (Q12809 whole entry, looked up): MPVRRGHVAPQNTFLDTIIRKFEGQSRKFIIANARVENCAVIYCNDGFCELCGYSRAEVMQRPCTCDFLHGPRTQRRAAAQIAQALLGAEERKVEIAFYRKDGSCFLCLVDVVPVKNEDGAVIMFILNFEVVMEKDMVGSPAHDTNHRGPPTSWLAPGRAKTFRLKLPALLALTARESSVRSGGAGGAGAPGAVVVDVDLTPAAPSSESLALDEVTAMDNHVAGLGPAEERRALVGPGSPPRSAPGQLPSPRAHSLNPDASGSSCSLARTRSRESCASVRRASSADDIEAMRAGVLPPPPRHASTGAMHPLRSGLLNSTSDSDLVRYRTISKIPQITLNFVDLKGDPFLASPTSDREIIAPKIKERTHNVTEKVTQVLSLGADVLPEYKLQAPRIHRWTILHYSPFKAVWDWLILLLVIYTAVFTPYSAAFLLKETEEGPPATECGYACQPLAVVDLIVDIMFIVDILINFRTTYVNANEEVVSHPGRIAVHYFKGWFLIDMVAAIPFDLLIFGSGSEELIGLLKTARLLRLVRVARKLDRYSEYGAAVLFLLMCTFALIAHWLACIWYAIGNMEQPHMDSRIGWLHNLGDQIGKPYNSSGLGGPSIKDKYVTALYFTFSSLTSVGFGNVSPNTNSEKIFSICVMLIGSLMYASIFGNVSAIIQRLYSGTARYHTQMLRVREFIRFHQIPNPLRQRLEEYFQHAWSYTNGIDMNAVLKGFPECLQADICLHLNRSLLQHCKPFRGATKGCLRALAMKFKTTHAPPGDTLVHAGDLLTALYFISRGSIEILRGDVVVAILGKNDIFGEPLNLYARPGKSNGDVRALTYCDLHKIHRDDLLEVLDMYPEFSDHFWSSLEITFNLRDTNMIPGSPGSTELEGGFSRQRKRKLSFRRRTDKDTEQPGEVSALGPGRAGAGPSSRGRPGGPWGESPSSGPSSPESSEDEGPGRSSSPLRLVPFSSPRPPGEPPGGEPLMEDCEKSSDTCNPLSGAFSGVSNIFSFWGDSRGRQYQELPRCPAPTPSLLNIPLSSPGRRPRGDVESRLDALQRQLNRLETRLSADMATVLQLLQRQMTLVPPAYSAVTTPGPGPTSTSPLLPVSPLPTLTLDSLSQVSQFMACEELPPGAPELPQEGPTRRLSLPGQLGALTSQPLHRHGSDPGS

| Structure (SMILES) | hERG current change (%, negative = inhibition) at 10uM [%] |
| --- | --- |
| CCn1cc([N+](=O)[O-])c(C(=O)N2N=C(c3ccc(OC)cc3OC)CC2c2ccccc2O)n1 (stereo not drawn) | 8.13 |
| CCOc1ccc(C(=O)Nc2cccc(-c3nc4cccnc4o3)c2)cc1Cl | -28 |
| Cc1nc2ccc(NC(=S)NC3CC3)cc2nc1C | 1.58 |
| CC(=O)N(C(C)=O)c1ccc2nc(C)[nH]c(=O)c2c1 | 2.02 |
| c1ccc(-c2nnc(CSc3nnc(-c4ccncc4)n3Cc3ccco3)o2)cc1 | -29.8 |
| CC(=O)NCCn1c(SCc2cc(=O)n3cc(Cl)ccc3n2)nc2ccccc2c1=O | -50.7 |
| Cc1cc(C(=O)COC(=O)CCC(=O)c2ccc3c(c2)OCCO3)c(C)n1Cc1ccco1 | 8.06 |
| COc1ccc(/C=C(/C(=O)Nc2ccccc2C(=O)N2CCCC2)c2ccccc2)cc1 | -25.8 |
| Cc1c(NS(=O)(=O)c2ccc(NC3CCCC3)c([N+](=O)[O-])c2)c(=O)n(-c2ccccc2)n1C | -19.7 |
| CN(C)CCCN(Cc1ccccc1)C(=S)Nc1ccc(OC(F)F)cc1 | -70.3 |
| CN(c1ccc(-c2csc(NC(=O)C3CC(=O)N(Cc4ccco4)C3)n2)cc1)S(C)(=O)=O (stereo not drawn) | -19 |
| COc1ccc(C)cc1NC(=O)C(NCC1CCCO1)c1ccccc1 (stereo not drawn) | -51.4 |
| COCC(=O)Nc1nc2n(n1)C(c1ccccc1Cl)CC(c1ccc(OC)cc1)N2 (stereo not drawn) | -18.6 |
| O=c1cc(CSc2nnc(-c3ccco3)o2)c2ccccc2[nH]1 | -7.54 |
| Cc1nc2c(-c3ccccc3)c(C)nn2c(C)c1CCC(=O)O | -10.6 |
| CSCCC(NC(=O)c1cccc(S(=O)(=O)N2CCOCC2)c1)c1nc2ccccc2[nH]1 (stereo not drawn) | -23.2 |
| COCCN1C(=O)/C(=C/c2ccc(OCc3ccc(C(=O)O)cc3)c(OC)c2)SC1=Nc1ccccc1 | 7.58 |
| CC(=NCCN1CCNCC1)C1=C(O)CC(C)(C)CC1=O | 1.32 |
| COCCNC(=S)N(Cc1cccnc1)Cc1ccc(OC)c(OC)c1.O=C(O)C(=O)O | 9.52 |
| CCc1noc(C)c1C(=O)NNC(=O)c1ccccc1F | 21 |
| Cc1cc(C(=O)CSc2nnc(-c3ccccc3)n2-c2ccccc2)c(C)n1-c1ncn[nH]1 | 17.7 |
| c1ccc(-c2onc(-c3ccco3)c2-c2ccc3[nH]ccc3c2)cc1 | 19.4 |
| CCn1cc(C(=O)NCC(OC)OC)c(=O)c2cc(S(=O)(=O)N3CCOCC3)ccc21 | 9.8 |
| COc1ccc(N(Cc2ccccc2)C(=O)CSc2nnc(Cn3nnc4ccccc43)o2)cc1 | -12.3 |
| O=C(C[n+]1ccc2ccccc2c1)Nc1cc(C(F)(F)F)ccc1Cl.[Cl-] | -44 |
| Cn1c(/N=C/c2ccc3c(c2)OCO3)nc2ccccc21 | -21 |
| COc1cc(C)cc(CN2CC=C(c3ccccc3)CC2)c1O | -51.4 |

| Structure (SMILES) | hERG current change (%, negative = inhibition) at 10uM [%] |
| --- | --- |
| O=C(NN(C(=O)C1CC1)c1nc2ccccc2s1)C1CC1 | 2.43 |
| CCOc1ncccc1C(=O)Nc1c(C)n(C)n(-c2ccccc2)c1=O | 8.24 |
| CCn1c(SCC(=O)Nc2sc3c(c2C(N)=O)CCC(C)C3)nnc1-c1ccco1 (stereo not drawn) | -11.2 |
| CN=C(SCc1cc2c(cc1Cl)OCO2)c1c(O)n(C)c(=O)n(C)c1=O | 8.63 |
| Cc1nn(CCCC(=O)Nc2nccs2)c(C)c1[N+](=O)[O-] | -5.37 |
| COC(=O)c1ccc(-n2nnnc2SC)cc1 | 3.46 |
| CCc1cc(Br)ccc1NC(=S)NCCc1ccccc1 | 3.97 |
| CCn1cc(C2=NC(c3ccccc3)CO2)c2ccccc21 (stereo not drawn) | -1.46 |
| Cc1cccc(N2CCN(C(=O)c3ccc(N4CCCC4=O)cc3)CC2C)c1 (stereo not drawn) | -7.58 |
| COc1ccc(/C=C/C(=O)Oc2cccc(/C=N/NC(=O)COc3c(C)cccc3C)c2)cc1 | 11.8 |
| Cc1cc(S(=O)(=O)NCC(C)C)ccc1OCC(=O)NCC1CCCO1 (stereo not drawn) | 8.03 |
| CC(=O)Nc1nc(-c2ccc([N+](=O)[O-])cc2)cs1 | 4.04 |
| C=CCNc1nnc(SCC(=O)N2CCC(C(N)=O)CC2)s1 | -7.48 |
| Cc1[nH]c2ccccc2c1C(=O)COC(=O)c1ccc[n+]([O-])c1 | 0.499 |
| Cc1cc(C)c(NC(=O)c2ccc(CNS(=O)(=O)c3cc(C(F)(F)F)ccc3Cl)cc2)c(C)c1 | -3.61 |
| Cc1cc(C)n2nc(SC(C)C(=O)N(C)c3ccccc3)nc2n1 (stereo not drawn) | 11.5 |
| O=C1CCN(Cc2ccc(Br)cc2)CCN1CCO | -1.08 |
| COc1cc(NS(=O)(=O)c2ccc(Cl)cc2)c(C(=O)O)cc1OC | -4.44 |
| Cc1cc2c(c(SCC(=O)NCc3ccccc3Cl)n1)C(=O)OC2 | 12.5 |
| C[C@@H](NC(=O)c1nc[nH]c1C(=O)N(C)Cc1ccccc1)c1ccccc1 | 0.0989 |
| N/C(CS(=O)(=O)c1ccccn1)=N\OC(=O)c1ccc(Cl)cc1 | -14.3 |
| Cc1ccc(NC(=O)Cn2c(=O)oc3ccccc32)cc1 | 14.3 |
| CCOc1cc(C)c(Cl)cc1S(=O)(=O)n1ccnc1 | 4.53 |
| COc1cc(S(=O)(=O)N(Cc2ccc(C)cc2)Cc2ccco2)ccc1-n1cnnn1 | 2.53 |
| COc1ccc(C)cc1NC(=O)CSc1nnc(-c2ccc(OC)c(OC)c2)n1N | -19.3 |
| CCOC(=O)C1=C(N)OC2=C(C(=O)CCC2)C1c1ccco1 (stereo not drawn) | -3.24 |
| CCN(CC(=O)Nc1cccc(OC)c1)c1ncnc2sc(C)c(C)c12 | -8.22 |
